Assay results: PubChem BioAssay (Tox21)
Where “and” joins values, the source holds several entries; their conditions need not be identical. Identical values can stand only once. Inconclusive means that the source gave no clear call. Such entries were picked first, then a sample of the others. For some assays here: Where the call is inconclusive, the potency comes from a doubtful curve fit. Where a structure was tested more than once in an assay, its records may differ in their call. Calls of active or inactive are those of the source. Unless noted, the call rests on the fitted dose curve; in most records, active means well fitted curve in the direction sought with a large enough effect in the repeat runs; inconclusive means weak or mixed curves; inactive means no such curve, though single readings can be large; an effect the other way counts as inactive or inconclusive.

Experiments:
[1] = qHTS assay for small molecule agonists of the p53 signaling pathway (AID 651631; calls by dose curve; further: nearly all actives have a fitted effect of over 15% in size; on activation: on the % scale 0 is the no-effect control and ±100 the full control effect); conditions: HCT-116 p53RE-bla reporter, beta-lactamase FRET ratio, 16 h; activation: at 73.3 µM (top of the series) unless noted
How it was run: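 Readout was fluorescence from the LiveBLAzer FRET substrate, applied for 2 h at room temperature after 16 h compound exposure at 37 °C. Cells were the p53RE-bla HCT-116 line, with beta-lactamase driven by p53 response elements.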

[2] = qHTS assay for small molecules that induce genotoxicity in human embryonic kidney cells expressing luciferase-tagged ATAD5 (AID 651632); further: nearly all actives have a fitted effect of over 15% in size; on activation: on the % scale 0 is the no-effect control and ±100 the full control effect
How it was run: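 Concentration-response screen for ATAD5 upregulation in HEK293T luciferase reporter cells; 16 hr treatment at 37C, then luminescence after 30 min with Amplite at room temperature.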

[3] = qHTS assay for small molecule disruptors of the mitochondrial membrane potential (AID 720635); conditions: HepG2 mitochondrial membrane potential, Mito-MPS dye ratio; ratio activity, negative = MMP loss: at 83.2 µM (top of the series) unless noted; on ratio activity, negative = MMP loss: on the % scale 0 is the no-effect control and ±100 the full control effect
How it was run: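 Mitochondrial membrane potential tracked with Mito-MPS dye, red aggregates (ex 540/em 590 nm) against green monomers (ex 490/em 535 nm). Compound treatment 1 hr at 37C, dye 30 min in HepG2.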

[4] = biological target: Glucocorticoid receptor (Homo sapiens) (UniProt P04150); assay: qHTS assay to identify small molecule antagonists of the glucocorticoid receptor (GR) signaling pathway (AID 720692; active means well fitted inhibition curve with a large enough effect in the signal ratio in the repeat runs, not every such curve was filed as active; inconclusive means weak or mixed curves, or effect the other way; inactive means no such curve, though single readings can be large or run the other way; the % refers to the signal ratio; on activity change, negative = inhibition: on the % scale 0 is the no-effect control and ±100 the full control effect); conditions: GR-bla HeLa, beta-lactamase FRET ratio, dexamethasone-stimulated, 18 h; activity change, negative = inhibition: at 58.5 µM (top of the series) unless noted
How it was run: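 Tox21 10K library screened in concentration-response for blockade of dexamethasone (5 nM final)-induced GRE-bla reporter activity in HeLa cells; 18 h treatment, fluorescence read.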

[5] = qHTS assay for small molecule disruptors of the mitochondrial membrane potential - cell viability (AID 720634; calls by dose curve; further: nearly all actives have a fitted effect of over 20% in size)
How it was run: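 In this qHTS format, HepG2 cells plated overnight were pinned with compound, incubated 1 hr, and assayed for ATP luminescence with CellTiter-Glo after m-MPI dye addition.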

[6] = biological target: Glucocorticoid receptor (Homo sapiens) (UniProt P04150); assay: qHTS assay to identify small molecule agonists of the glucocorticoid receptor (GR) signaling pathway (AID 720691; active means well fitted activation curve with a large enough effect in the signal ratio in the repeat runs, not every such curve was filed as active; inconclusive means weak or mixed curves, or effect the other way; inactive means no such curve, though single readings can be large or run the other way; the % refers to the signal ratio); conditions: GR-bla HeLa, beta-lactamase reporter ratio, 18 h; activation: at 62.4 µM (top of the series) unless noted
How it was run: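 Measures GR pathway activation through a GRE-beta-lactamase reporter stably integrated in HeLa cells, with 18 h compound treatment at 37 C and fluorescence detection using a FRET substrate.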

[7] = qHTS assay to identify small molecule antagonists of the glucocorticoid receptor (GR) signaling pathway - cell viability counter screen (AID 720693); conditions: GR-bla HeLa viability, CellTiter-Glo luminescence, 18 h, with 5 nM dexamethasone present; viability change, negative = cytotoxic: at 58.5 µM (top of the series); further: nearly all actives have a fitted effect of over 55% in size
[8] = qHTS assay for small molecule agonists of the p53 signaling pathway - cell viability (AID 651633; calls by dose curve; further: nearly all actives have a fitted effect of over 30% in size)
How it was run: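 Viability counter-read: CellTiter-Glo luminescence (30 min, room temperature) in the same p53RE-bla plates. These plates had been exposed to compounds for 16 h at 37 C.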

[9] = qHTS assay to test for compound auto fluorescence at 460 nm (blue) in HEK293 cells (AID 720678); conditions: blue autofluorescence 405/460 nm
How it was run: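 Auto fluorescence in the blue band was quantified as triamterene equivalency. HEK293 cells were seeded at 2,000/well, dosed after a 4-5 hr attachment, and kept overnight at 37C before the 405/460 nm reading.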

[10] = qHTS assay to test for compound auto fluorescence at 460 nm (blue) in HepG2 cell free culture (AID 720685); conditions: Cell-free culture medium, blue autofluorescence 405/460 nm
How it was run: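 Cell-free plates of MEM plus 10% FBS received 23 nL compound or DMSO vehicle; blue-channel (405/460 nm) intensity scored against triamterene as reference fluorophore.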

[11] = qHTS assay for identifying genotoxic compounds that show differential cytotoxicity against isogenic chicken DT40 cell lines with known DNA damage response pathways - wild type cell line (AID 743012); conditions: DT40 wild type chicken cells viability, CellTiter-Glo, 40 h; activity change, negative = cytotoxicity: at 68.4 µM (top of the series); further: nearly all actives have a fitted effect of over 60% in size
How it was run: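 Endpoint: CellTiter-Glo luminescence, 30 min RT. Cells: wild type DT40, 300/well. Exposure: compounds in DMSO, 40 h, 37 C/5% CO2, after ~0.5 h pre-incubation.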

[12] = qHTS assay for small molecules that induce genotoxicity in human embryonic kidney cells expressing luciferase-tagged ATAD5 - cell viability (AID 651634; calls by dose curve; further: nearly all actives have a fitted effect of over 25% in size)
How it was run: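 15.5 hr compound or vehicle exposure of HEK293T cells expressing luciferase-tagged ATAD5 at 37C; live-cell protease activity is read by fluorescence after 30 min of CellTiter-Fluor.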
Potency means the concentration at half of the fitted maximal effect; tags describe the fitted curve by direction and shape or compound fluorescence and quenching.

Sequence of UniProt P04150 (P04150 whole entry, looked up): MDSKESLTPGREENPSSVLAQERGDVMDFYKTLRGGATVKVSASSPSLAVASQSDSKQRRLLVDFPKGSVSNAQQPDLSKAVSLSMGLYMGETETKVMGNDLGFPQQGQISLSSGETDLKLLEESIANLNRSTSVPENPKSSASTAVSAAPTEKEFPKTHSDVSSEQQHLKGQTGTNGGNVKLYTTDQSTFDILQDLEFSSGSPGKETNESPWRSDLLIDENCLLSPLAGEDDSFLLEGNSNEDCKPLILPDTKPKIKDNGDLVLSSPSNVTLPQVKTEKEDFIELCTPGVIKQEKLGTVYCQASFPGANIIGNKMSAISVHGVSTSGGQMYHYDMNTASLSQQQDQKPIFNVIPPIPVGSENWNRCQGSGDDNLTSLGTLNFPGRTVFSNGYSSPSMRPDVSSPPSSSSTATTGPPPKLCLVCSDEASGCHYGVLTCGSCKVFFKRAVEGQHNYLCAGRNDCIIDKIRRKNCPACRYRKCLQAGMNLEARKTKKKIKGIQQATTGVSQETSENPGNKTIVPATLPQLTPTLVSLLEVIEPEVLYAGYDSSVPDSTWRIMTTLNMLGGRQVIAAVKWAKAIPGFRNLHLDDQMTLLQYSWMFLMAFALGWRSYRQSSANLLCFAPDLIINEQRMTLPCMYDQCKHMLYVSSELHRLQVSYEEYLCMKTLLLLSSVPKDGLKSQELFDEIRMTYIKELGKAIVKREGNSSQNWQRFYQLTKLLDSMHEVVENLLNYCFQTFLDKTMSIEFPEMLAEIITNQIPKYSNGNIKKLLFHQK

## c1ccc2cc3ccccc3cc2c1
[1]
  Potency: inactive
[2]
  Potency: inactive
[3]
  Potency: active: 5.01 µM and active: 34.4 µM
[4]
  Potency: inactive

## O=C1C=CC(=O)N1c1ccc(Cc2ccc(N3C(=O)C=CC3=O)cc2)cc1
[1]
  Potency: active: 13.7 µM
[2]
  Potency: inconclusive: 2.17 µM [activator, partial curve]
[5]
  Potency: active: 7.7 µM
[3]
  Potency: active: 6.86 µM
[6]
  Potency: inconclusive: 61.6 µM [single point]
[4]
  Potency: inconclusive: 54.9 µM [cytotoxic, single point]
[7]
  Potency: inconclusive: 54.9 µM [cytotoxic, single point]

## Nc1nc(N)c2nc(-c3ccccc3)c(N)nc2n1
[1]
  Potency: active: 26.6 µM and active: 15.5 µM and active: 34.4 µM
[2]
  Potency: inconclusive: 69.4 µM [activator] and inconclusive: 54.5 µM [activator, partial curve, poor fit]
[8]
  Potency: inconclusive: 33.5 µM [cytotoxic, partial curve, poor fit] and inconclusive: 55.1 µM [cytotoxic, single point]
[9]
  Potency: active: 14.1 µM [fluorescent] and active: 31.6 µM [fluorescent] and active: 35.5 µM [fluorescent]
[10]
  Potency: active: 12.6 µM [fluorescent] and active: 39.8 µM [fluorescent]
[6]
  Potency: inconclusive: 26.8 µM [activator, single point] and inconclusive: 3.93 µM [fluorescent, full curve, poor fit] and inconclusive: 49 µM [activator, partial curve]
[4]
  Potency: inconclusive: 26.8 µM [activator, partial curve] and inconclusive: 49.5 µM [activator, partial curve] and inconclusive: 49 µM [activator, partial curve]

## CC(=O)OC/C=C(C)/C=C/C=C(C)/C=C/C1=C(C)CCCC1(C)C
[1]
  Potency: inconclusive: 68.6 µM
  activation: inconclusive: 11.5%
[3]
  Potency: inconclusive: 29.8 µM [activator, partial curve]
[11]
  Potency: inconclusive: 33.5 µM [cytotoxic, single point] and inconclusive: 66.9 µM [cytotoxic, single point]

## COc1cc([C@@H]2c3cc4c(cc3[C@@H](O[C@@H]3O[C@@H]5CO[C@@H](C)O[C@H]5[C@H](O)[C@H]3O)[C@H]3COC(=O)[C@H]23)OCO4)cc(OC)c1O
[1]
  Potency: active: 1.88 µM and active: 761 nM
[2]
  Potency: inconclusive: 8.41 µM [activator, full curve, poor fit]
[3]
  ratio activity, negative = MMP loss: inconclusive: -6.39% and inconclusive: 10.4%

## CC(=O)Nc1ccc(C(=O)CCl)cc1
[1]
  Potency: active: 24.3 µM
[2]
  Potency: active: 24.3 µM
[8]
  Potency: active: 30.6 µM
[5]
  Potency: active: 27.3 µM
[3]
  Potency: active: 27.3 µM
[6]
  Potency: inconclusive: 54.9 µM [falling, single point]
[4]
  Potency: inconclusive: 43.6 µM [cytotoxic, partial curve, poor fit]
[7]
  Potency: inconclusive: 54.9 µM [cytotoxic, single point]

## O=C(CC(C(=O)OC1CCCCC1)S(=O)(=O)O)OC1CCCCC1 (centres undefined)
[1]
  Potency: inconclusive: 67.7 µM [falling, single point]

## Cc1cc(Nc2ccc(O)cc2)ccc1N
[1]
  Potency: inconclusive: 54.2 µM [cytotoxic, partial curve]
[2]
  Potency: inconclusive: 9.64 µM [activator, single point]
[5]
  Potency: inconclusive: 30.5 µM [cytotoxic, partial curve]
[6]
  Potency: inconclusive: 24.4 µM [cytotoxic, partial curve]
[4]
  Potency: inconclusive: 48.8 µM [cytotoxic, partial curve]

## CS(=O)(=O)CCNCc1ccc(-c2ccc3ncnc(Nc4ccc(OCc5cccc(F)c5)c(Cl)c4)c3c2)o1
[1]
  Potency: inactive

## Nc1ccc(Nc2ccccc2)cc1
[1]
  Potency: inconclusive: 60.4 µM [activator, partial curve] and inconclusive: 68.6 µM [activator, partial curve, poor fit] and inconclusive: 77 µM [activator]
[2]
  Potency: inactive
[12]
  Potency: inconclusive: 67.8 µM [falling, single point]
[5]
  Potency: inconclusive: 76.1 µM [cytotoxic, partial curve, poor fit]
[3]
  ratio activity, negative = MMP loss: inconclusive: -10.6%
[6]
  Potency: inconclusive: 48.5 µM [cytotoxic, partial curve] and inconclusive: 43.7 µM [cytotoxic, partial curve]
[4]
  Potency: inconclusive: 48.5 µM [cytotoxic, single point] and inconclusive: 30.9 µM
  activity change, negative = inhibition: inconclusive: 51.8%

## COc1ccccc1/C=C/C=O
[1]
  Potency: inconclusive: 54.5 µM [activator, partial curve]
  activation: inconclusive: 7.54% [at 95.1 µM]
[11]
  Potency: inconclusive: 70.4 µM [cytotoxic, single point] and inconclusive: 61.1 µM [cytotoxic, partial curve]

## Cc1nc(-c2ccc3c(c2)CCN(CCC2CCC(NC(=O)/C=C/c4ccc(F)cc4)CC2)CC3)no1 (centres undefined)
[1]
  Potency: active: 27.4 µM
[2]
  Potency: active: 19.4 µM
[8]
  Potency: inactive
[12]
  Potency: inconclusive: 7.71 µM [falling, partial curve, poor fit]
[3]
  Potency: inactive
[6]
  Potency: active: 21.9 µM
[4]
  Potency: inconclusive: 21.9 µM
[11]
  Potency: active: 386 nM
